According to PubChem BioAssay AID488969 (Vanderbilt High Throughput Screening Facility, 2010):
In all, about 110,000 compounds were measured (“z-score”: median about -0.1, highest 2% from about 2 on). The list shows a part of the results.

molecular target: Metabotropic glutamate receptor 8 (Rattus norvegicus) (UniProt P70579); test: mGluR8 Gi/Go-coupled signaling modulation – cell-based, rat, thallium flux, HTS, primary screen (AID 488969); details: HEK293 rat mGluR8, GIRK (G protein-gated inwardly rectifying potassium channel) thallium flux, FluoZin2; at 10 µM; stronger effect = higher value; submaximal glutamate (EC20) added with thallium
Sequence of UniProt P70579 (P70579 whole entry, looked up): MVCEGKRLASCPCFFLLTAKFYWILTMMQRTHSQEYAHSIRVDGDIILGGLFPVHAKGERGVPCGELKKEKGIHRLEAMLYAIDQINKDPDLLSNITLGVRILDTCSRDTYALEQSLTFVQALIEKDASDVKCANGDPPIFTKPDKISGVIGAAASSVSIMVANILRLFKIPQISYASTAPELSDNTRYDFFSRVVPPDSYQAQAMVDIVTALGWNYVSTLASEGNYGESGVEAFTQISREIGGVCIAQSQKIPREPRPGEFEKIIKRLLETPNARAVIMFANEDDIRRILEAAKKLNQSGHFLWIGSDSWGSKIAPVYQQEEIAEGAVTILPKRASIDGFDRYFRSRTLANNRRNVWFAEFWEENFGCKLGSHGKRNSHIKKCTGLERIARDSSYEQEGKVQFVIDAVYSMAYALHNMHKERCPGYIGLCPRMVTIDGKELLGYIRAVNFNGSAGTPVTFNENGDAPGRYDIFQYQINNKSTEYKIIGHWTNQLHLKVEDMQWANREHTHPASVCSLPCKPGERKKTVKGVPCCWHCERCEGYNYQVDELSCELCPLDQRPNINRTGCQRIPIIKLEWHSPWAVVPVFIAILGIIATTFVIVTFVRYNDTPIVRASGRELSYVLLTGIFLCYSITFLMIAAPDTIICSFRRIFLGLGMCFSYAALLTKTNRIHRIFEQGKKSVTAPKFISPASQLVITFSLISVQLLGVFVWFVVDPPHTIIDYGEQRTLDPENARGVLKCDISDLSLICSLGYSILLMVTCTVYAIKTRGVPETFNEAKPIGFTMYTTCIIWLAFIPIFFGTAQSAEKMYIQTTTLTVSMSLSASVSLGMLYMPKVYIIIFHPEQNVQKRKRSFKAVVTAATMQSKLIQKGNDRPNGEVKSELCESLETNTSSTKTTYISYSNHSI

Structure (SMILES) | z-score
O=C(O)Cn1c(-c2ccccc2)nc2ccccc21 | -0.223
CC(C)c1ccc(/C=C/C(=O)NC2CCCCC2)cc1 | -0.317
CCOc1[nH]n(-c2ccc(Cl)cc2)c(=O)c1C=Nc1ccc(O)cc1 | -2.12
C=CCn1c(SCC(=O)NCc2ccccc2)nnc1-c1ccccc1O | 1.26
COc1ccc(C2/C(=C(\O)c3ccc4c(c3)OCCO4)C(=O)C(=O)N2CCCN(C)C)cc1 (stereo unspecified) | 0.0912
O=C(c1cc(S(=O)(=O)N2CCOCC2)ccc1F)N1CCCc2ccccc21 | 0.285
COC(=O)c1ccc(NC(=O)CN(C)S(=O)(=O)c2ccc(OC)c(C)c2)cc1 | -0.288
CCOc1nc(SCCOc2ccc(C)cc2)nc(N(C)C)n1 | -1.03
COc1ccc(/C=N/NC(=O)c2ccccc2)cc1OS(=O)(=O)c1ccccc1 | -0.359
CCOC(=O)c1cc(-c2ccco2)nc2c1c(C)nn2-c1cccc(Cl)c1 | -0.324
CC(C)Cc1ccc(S(=O)(=O)N2CCOCC2)cc1 | -0.131
Cc1cc(C)nc(N(C#N)S(=O)(=O)c2ccc(Br)cc2)n1 | -0.212
CCOc1cc(S(=O)(=O)NCc2ccccc2)ccc1F | 0.0209
Cc1ccc(S(=O)(=O)NCCC2(C(C)C)CCOC(C)(C)C2)cc1 (stereo unspecified) | -0.132
Cn1c(C(=O)NCCCN2CCc3ccccc3C2)cc2c(=O)n(C)c3ccccc3c21 | 0.807
COc1ccc(NC(=O)N2CCN(c3cccc(C(F)(F)F)c3)CC2)cc1OC | -0.422
O=C(NNc1ccc(C2CCCCC2)cc1)C(O)(c1ccccc1)c1cccs1 (stereo unspecified) | 0.285
Cc1ccc2nc(SCC(=O)Nc3ccc4c(c3)OCCO4)[nH]c2c1 | -0.404
O=C(c1ccco1)N1CCCC(c2ccccc2)C1 (stereo unspecified) | -0.388

Structure (SMILES) | z-score
O=c1[nH]c2cccnc2n1Cc1ccco1 | 0.26
CC(C)N=c1scc(-c2ccco2)n1/N=C/c1ccc(O)c(O)c1 | 1.68
CC(=C/C(=O)O)/C=C/c1cccs1 | -0.429
Cc1nc(N(C)Cc2ccccc2)c2nnn(Cc3ccccc3)c2n1 | -0.549
Cc1ccc(C)c(SCc2noc(C(=O)NCC3CCCO3)c2C(=O)O)c1 (stereo unspecified) | -0.357
CS(=O)(=O)N(CC(=O)Nc1ccccc1C(=O)NCc1ccccc1)c1ccc2c(c1)OCCO2 | 0.0819
Cc1cccc(N(C(=O)c2cnc3n(c2=O)CCS3)C2CCCCC2)c1 | 0.0506
O=C(NCc1ccccc1)c1cnc2n(c1=O)CCS2 | -0.0906
COCCNCC(=O)NC12CC3CC(CC(C3)C1)C2 | -0.237
CCOC(=O)c1cc(-c2nnc(-c3ccc(Oc4ccccc4)cc3)o2)c(C)nc1C | -0.116
CC(NC(=O)COc1ncnc2cc([N+](=O)[O-])ccc12)c1ccccc1 (stereo unspecified) | -0.282
CC(C)C1Cc2[nH]c(=O)c(C(=O)O)cc2CO1 (stereo unspecified) | -0.205
CCOC(=O)CN(C(=O)CNC(=O)c1cccs1)C(C(=O)NC1CCCC1)c1cccnc1 (stereo unspecified) | -0.197
O=C(NCCc1c[nH]c2ccccc12)c1ccc([N+](=O)[O-])cc1 | -0.249
Nc1c(C(=O)NCc2ccccc2)sc2nc(N3CCOCC3)c3c(c12)CCCC3 | -0.0483
Cn1c(CCN2CCCCC2)nc2cc(NC(=O)Nc3ccccc3)ccc21 | 0.037
CCCc1cc(=O)[nH]c(/N=C(/NC(=O)c2ccccc2)Nc2ccc3c(c2)OCCO3)n1 | -0.0513
C/C(=N\Nc1nc2ccccc2[nH]1)c1cccs1 | -0.515
Cc1cc(C)cc(NC(=S)N=Nc2c(O)n(C)c3ccc(S(=O)(=O)N4CCOCC4)cc23)c1 | 0.616

Structure (SMILES) | z-score
CCOC(=O)c1sc(N/N=C/c2cccc(C)c2)nc1C | 0.0699
COc1ccc(S(=O)(=O)N2CCOCC2)cc1NC(=O)COc1ncnc2ccccc12 | -0.0483
CC(C)N1CC=C2C(C#N)=C(N)C(C#N)(C#N)C(c3ccccc3)C2C1 (stereo unspecified) | -2.27
CCCCN(CC)CCNC(=O)c1[nH]c(C)c(C(C)=O)c1C | 0.262
O=C(Nc1ccc(N2CCCC2)c(Cl)c1)c1cccnc1 | -0.187
N#C/C(=C\c1ccc(Cl)cc1)c1nc2ncccc2[nH]1 | -0.709
Cn1c(Cc2cccs2)nnc1SCC(=O)N1CCCc2ccccc21 | -0.115
CCOc1ccc(-n2c(C)nc3c(cnn3-c3ccc(Cl)cc3)c2=O)cc1 | 0.346
Cc1ccc(NC(=O)C(=O)NCCN2CCN(Cc3ccc([N+](=O)[O-])cc3)CC2)cc1 | -0.113
Cc1ccc(-c2nn3c(C)nnc3s2)cc1N | 0.054
O=C(CSc1nnnn1Cc1ccccc1)Nc1ccc2c(c1)OCO2 | -0.903
Cc1ccc(C(=O)O)cc1NC(=S)NC(=O)C(c1ccccc1)c1ccccc1 | -0.483
O=C(CSc1nc2ncc(Br)cc2[nH]1)c1ccc([N+](=O)[O-])cc1 | -1.08
CCc1cc(C)c(O)c(CC)n1 | -0.0228
O=S1(=O)CCN2C(=N1)SC1=C2CCN(Cc2ccccc2)C1 | 1.34
Cc1ccc(S(=O)(=O)N2CCOCC2)cc1NC(=O)COC(=O)CNC(=O)c1ccccc1 | -0.201
COC(=O)c1c(C)[nH]c(O)c1C=Nc1ccc(C(C)C)cc1 | -0.277
C=C(C)C1CC=C(C)/C(=N/NC(=S)Nc2ccccc2)C1 (stereo unspecified) | 2.35
